# Results reported in PubChem BioAssay (NCATS).
# Inconclusive means that the source gave no clear call. Such entries were picked first, then a sample of the others. For some assays here: Potencies of inconclusive entries are left out as doubtful fits. The source made the active and inactive calls. Unless noted, the call rests on the fitted dose curve; in most records, active means well fitted curve in the direction sought with a large enough effect; inconclusive means small, poorly fitted or top-dose-only effect, or another doubt; inactive means no such curve, though single readings can be large; an effect the other way counts as inactive or inconclusive.
# Tests used:
# [1] = AP1 Signaling Pathway (AID 357; active means well fitted curve in either direction with a large enough effect, not every such curve was filed as active; inconclusive means small, poorly fitted or top-dose-only effect, or another doubt;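 further: ME-180 reporter cells stimulated with EGF at its EC50 level; top concentration of the series differs between compounds; on the % scale 0 is the no-effect control and ±100 the full control effect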); conditions: ME-180 AP-1-bla reporter, EGF-induced, beta-lactamase ratio, 5 h; at 7.69 µM (top of the series) unless noted
# Outline: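 Beta-lactamase reporter under AP-1 response element, ME-180 background. Stimulus: EC50 EGF. Compound exposure 5 h, 37 °C. Detection: CCF4, 2.5 h RT, 460/530 nm. Values: AC50 from titration.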
# [2] = target: Cytochrome P450 3A4 (Homo sapiens) (UniProt P08684); assay: qHTS Assay for Inhibitors and Substrates of Cytochrome P450 3A4 (AID 884); conditions: recombinant CYP3A4, Luciferin-PPXE luminescence; activity change, negative = inhibition: at 57.1 µM (top of the series); further: potency means the concentration at half of the fitted maximal effect; nearly all actives have a fitted effect of over 50% in size
# UniProt P08684, sequence (P08684 whole entry, looked up): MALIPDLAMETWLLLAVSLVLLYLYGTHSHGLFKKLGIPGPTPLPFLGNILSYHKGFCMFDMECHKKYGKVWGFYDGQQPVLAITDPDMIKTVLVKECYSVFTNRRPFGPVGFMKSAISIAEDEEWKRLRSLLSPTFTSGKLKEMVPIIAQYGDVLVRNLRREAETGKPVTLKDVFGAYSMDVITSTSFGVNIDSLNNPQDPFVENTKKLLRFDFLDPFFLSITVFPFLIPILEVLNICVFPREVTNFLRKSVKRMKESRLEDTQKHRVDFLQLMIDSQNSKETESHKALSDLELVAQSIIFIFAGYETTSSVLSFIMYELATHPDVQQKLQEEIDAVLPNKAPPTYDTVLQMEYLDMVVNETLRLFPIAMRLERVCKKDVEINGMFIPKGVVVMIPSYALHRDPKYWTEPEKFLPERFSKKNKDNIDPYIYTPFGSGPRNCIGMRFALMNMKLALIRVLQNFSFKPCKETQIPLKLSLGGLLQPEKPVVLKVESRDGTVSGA
# Outline: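 20 nM human CYP3A4 with 25 uM Luciferin-PPXE (at KM) in 200 mM KPO4, preincubated 10 min with compound; NADPH regeneration started a 60 min RT reaction. Luciferin detected by luminescence, normalized to 57 uM ketoconazole as full inhibition.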
# [3] = target: Cytochrome P450 3A4 (Homo sapiens) (UniProt P08684); assay: qHTS Assay for Activators of Cytochrome P450 3A4 (AID 885); further: nearly all actives have a fitted effect of over 65% in size
# Outline: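 Signal was normalized against complete inhibition by 57 uM ketoconazole. The reaction used 20nM CYP3A4 with 25uM Luciferin-PPXE, 10-min compound preincubation and a 60-min NADPH-supported step at RT.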
# [4] = Primary qHTS for small molecule stabilizers of the endoplasmic reticulum resident proteome: Secreted ER Calcium Modulated Protein (SERCaMP) assay (AID 1508630); conditions: SH-SY5Y GLuc-SERCaMP (Gaussia luciferase released on ER calcium loss) secretion, thapsigargin, luminescence; activity change, negative = inhibition: at 38.4 µM (top of the series) unless noted; further: potency means the concentration at half of the fitted maximal effect
# Outline: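 GLuc-SERCaMP-expressing SH-SY5Y cells, pretreated 16 h with compound, are challenged with thapsigargin to empty ER calcium stores; after 4 h, coelenterazine is added directly to the medium and luminescence is imaged.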
# [5] = NFAT Signaling Pathway (AID 444; active means well fitted curve in either direction with a large enough effect, not every such curve was filed as active; inconclusive means small, poorly fitted or top-dose-only effect, or another doubt;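 further: carbachol stimulus at about its EC50 of 1 µM final; on the % scale 0 is the no-effect control and ±100 the full control effect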); conditions: Jurkat NFAT-bla M1, carbachol, beta-lactamase ratio, 5 h; at 7.69 µM (top of the series) unless noted
# Outline: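 Read-out: CCF4 FRET ratio (460 nm/530 nm) after 1 h RT dye loading, used for %activity and AC50 from titration series. Cells: Jurkat NFAT-β-lactamase/M1 line, treated with compound plus 1 uM carbachol for 5 h, 37 °C.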
# [6] = target: 3',5'-cyclic-AMP phosphodiesterase 4B (Homo sapiens) (UniProt Q07343); assay: qHTS Assay for Inhibitors of PDE-IV (AID 607; active means well fitted activation curve with a large enough effect in the main read-out, with a control signal flat, not every such curve was filed as active; inconclusive means small, poorly fitted or top-dose-only effect, or effect the other way, or a change in a side signal; further: potency means the concentration at half of the fitted maximal effect; on activation (PDE inhibition): % of control where 0% means no effect); conditions: HEK293 ACTOne CNG channel cells, membrane potential fluorescence; activation (PDE inhibition): at 22.9 µM (top of the series)
# UniProt Q07343, sequence (Q07343 whole entry, looked up): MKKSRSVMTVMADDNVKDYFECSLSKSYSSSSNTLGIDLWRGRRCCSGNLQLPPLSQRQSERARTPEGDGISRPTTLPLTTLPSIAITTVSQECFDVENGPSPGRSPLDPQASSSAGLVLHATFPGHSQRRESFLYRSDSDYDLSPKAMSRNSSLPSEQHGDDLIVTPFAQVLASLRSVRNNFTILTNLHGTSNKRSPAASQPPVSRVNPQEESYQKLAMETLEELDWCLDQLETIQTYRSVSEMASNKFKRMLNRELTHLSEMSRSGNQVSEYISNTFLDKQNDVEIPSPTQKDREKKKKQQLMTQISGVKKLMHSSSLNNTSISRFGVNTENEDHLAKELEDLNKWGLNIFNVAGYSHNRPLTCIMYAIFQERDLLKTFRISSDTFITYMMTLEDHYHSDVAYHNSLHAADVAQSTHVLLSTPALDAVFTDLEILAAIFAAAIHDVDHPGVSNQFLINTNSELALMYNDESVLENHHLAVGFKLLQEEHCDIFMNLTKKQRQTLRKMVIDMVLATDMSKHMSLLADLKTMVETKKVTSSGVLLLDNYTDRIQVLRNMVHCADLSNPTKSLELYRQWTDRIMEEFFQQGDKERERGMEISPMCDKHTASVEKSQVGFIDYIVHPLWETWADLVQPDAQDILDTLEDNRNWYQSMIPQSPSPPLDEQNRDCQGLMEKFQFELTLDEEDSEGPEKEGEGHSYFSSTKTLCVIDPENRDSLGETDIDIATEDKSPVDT
# Outline: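 Cell-based read-out of cAMP via a modified cyclic nucleotide-gated channel and membrane potential dye (535/590 nm) in HEK293 cells expressing PDE4 endogenously. Compounds tested up to 22.9 uM final; 100 uM RO 20-1724 reference.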
# [7] = target: Cytochrome P450 2C9 (Homo sapiens) (UniProt P11712); assay: qHTS Assay for Inhibitors and Substrates of Cytochrome P450 2C9 (AID 883); further: nearly all actives have a fitted effect of over 60% in size; further: potency means the concentration at half of the fitted maximal effect
# UniProt P11712, sequence (P11712 whole entry, looked up): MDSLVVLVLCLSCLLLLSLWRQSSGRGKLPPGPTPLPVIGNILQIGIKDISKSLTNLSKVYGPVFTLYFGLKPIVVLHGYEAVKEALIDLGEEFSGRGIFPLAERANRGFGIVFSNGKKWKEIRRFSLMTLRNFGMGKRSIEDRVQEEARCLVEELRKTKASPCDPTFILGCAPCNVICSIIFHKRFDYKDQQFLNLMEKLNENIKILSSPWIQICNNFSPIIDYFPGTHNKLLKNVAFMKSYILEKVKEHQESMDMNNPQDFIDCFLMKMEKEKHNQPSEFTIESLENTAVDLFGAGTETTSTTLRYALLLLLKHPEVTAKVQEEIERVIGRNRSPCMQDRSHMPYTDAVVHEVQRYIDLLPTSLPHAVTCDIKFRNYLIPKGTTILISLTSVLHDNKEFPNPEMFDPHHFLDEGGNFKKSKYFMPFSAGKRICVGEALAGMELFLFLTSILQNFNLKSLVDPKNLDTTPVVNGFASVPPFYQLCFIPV
# Outline: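 Inhibition of CYP2C9 is scored as loss of luminescence, with 57uM sulphaphenazole defining 100% inhibition. Substrate Luciferin-H is used at 100uM, equal to its KM; enzyme at 10nM in 25mM KPO4, 60 min at 37C with NADPH regeneration.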
# [8] = qHTS Assay for Identification of Small Molecule Agonists for Hypoxia Response Element Signaling Pathway (AID 914; active means well fitted activation curve with a large enough effect in the signal ratio, with a control signal flat, not every such curve was filed as active; inconclusive means small, poorly fitted or top-dose-only effect, or effect the other way, or a change in a side signal; the % refers to the signal ratio; further: potency means the concentration at half of the fitted maximal effect; on activation: top concentration of the series differs between compounds; % of control where 0% means no effect); conditions: ME-180 HRE-bla reporter, beta-lactamase ratio, CoCl2, 17 h; activation: active compounds read high
# Outline: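 HRE-bla ME-180 cells, overnight plating in Opti-MEM with 0.5% dialyzed FBS; cpd titration + EC50 CoCl2, 17 h, 37 degrees Celsius; CCF4 2.5 h RT; 460/530 nm ratio; AC50.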
# [9] = Stat Signaling Pathway (AID 446; active means well fitted curve in either direction with a large enough effect, not every such curve was filed as active; inconclusive means small, poorly fitted or top-dose-only effect, or another doubt;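 further: ME-180 cervical cancer cells given 40 pM IL-6 alongside compound; SIE-controlled beta-lactamase reporter measured as 460/530 nm FRET emission ratio; top concentration of the series differs between compounds; on the % scale 0 is the no-effect control and ±100 the full control effect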); conditions: ME-180 SIE beta-lactamase reporter, IL-6 stimulated, 5 h; at 7.69 µM (top of the series) unless noted
# Outline: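 Reporter line: ME-180 cervical carcinoma, SIE-beta-lactamase. Treatment: compound with 40 pM IL-6, 5 hrs, 37 C, in low-serum OPTI-MEM with 10 mM HEPES pH 7.3. Detection: 460/530 nm fluorescence.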
# [10] = target: Mitogen-activated protein kinase 10 (Mus musculus) (UniProt Q61831); assay: JNK3 AlphaScreen Assay (AID 530; active means well fitted curve in either direction with a large enough effect, not every such curve was filed as active; inconclusive means small, poorly fitted or top-dose-only effect, or another doubt;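 further: kinase came from lysate of stimulated human HepG2 cells; signal reports phosphorylation of biotinylated GST-cJun 1-79 at Ser73 with 10 µM ATP; potency means the concentration at half of the fitted maximal effect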); conditions: JNK3 lysate, c-Jun phosphorylation; activity change, negative = inhibition: at 57.1 µM (top of the series)
# Outline: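 Compound titrations were preincubated 15 minutes at room temperature with substrate, antibody and pre-activated JNK3-containing HepG2 lysate. Reactions were started with 10 uM ATP and stopped with EDTA-containing bead buffer for AlphaScreen detection.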
# [11] = target: Ubiquitin carboxyl-terminal hydrolase 1 (Homo sapiens) (UniProt O94782); assay: Inhibitors of USP1/UAF1: Pilot qHTS (AID 504865); further: potency means the concentration at half of the fitted maximal effect;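 further: rhodamine fluorescence freed from ubiquitin-rhodamine substrate followed over time; nearly all actives have a fitted effect of over 35% in size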; on activity change, negative = inhibition: top concentration of the series differs between compounds; on the % scale 0 is the no-effect control and ±100 the full control effect
# UniProt O94782, sequence (O94782 whole entry, looked up): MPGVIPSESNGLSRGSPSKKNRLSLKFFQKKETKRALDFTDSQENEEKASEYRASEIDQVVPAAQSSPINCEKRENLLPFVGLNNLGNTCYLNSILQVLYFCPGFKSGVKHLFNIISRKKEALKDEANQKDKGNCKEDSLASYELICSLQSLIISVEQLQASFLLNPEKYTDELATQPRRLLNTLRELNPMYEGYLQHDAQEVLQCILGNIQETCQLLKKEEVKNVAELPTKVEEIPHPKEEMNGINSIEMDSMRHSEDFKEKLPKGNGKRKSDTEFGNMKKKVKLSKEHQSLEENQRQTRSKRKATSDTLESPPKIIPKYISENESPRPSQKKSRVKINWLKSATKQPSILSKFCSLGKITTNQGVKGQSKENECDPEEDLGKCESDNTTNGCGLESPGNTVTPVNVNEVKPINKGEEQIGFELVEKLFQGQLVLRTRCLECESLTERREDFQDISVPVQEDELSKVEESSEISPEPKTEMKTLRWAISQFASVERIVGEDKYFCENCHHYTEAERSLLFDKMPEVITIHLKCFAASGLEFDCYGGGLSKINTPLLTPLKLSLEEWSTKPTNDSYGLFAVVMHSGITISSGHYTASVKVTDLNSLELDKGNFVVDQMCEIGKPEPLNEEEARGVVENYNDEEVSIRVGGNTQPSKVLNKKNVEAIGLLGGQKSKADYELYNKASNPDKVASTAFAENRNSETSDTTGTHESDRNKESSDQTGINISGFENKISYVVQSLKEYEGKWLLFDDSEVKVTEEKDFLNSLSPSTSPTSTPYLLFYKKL
# Outline: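 USP1/UAF1 complex at 1 nM preincubated 15 min at room temperature with compound, then Ub-Rho substrate added at 150 nM final. Fluorescence (480/540 nm) read kinetically in 50 mM HEPES pH 7.8, 0.5 mM EDTA, 1 mM TCEP, 0.1 mg/ml BSA, 0.01% Tween-20.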
# [12] = target: Cytochrome P450 2C19 (Homo sapiens) (UniProt P33261); assay: qHTS Assay for Inhibitors and Substrates of Cytochrome P450 2C19 (AID 899); further: potency means the concentration at half of the fitted maximal effect; nearly all actives have a fitted effect of over 60% in size
# UniProt P33261, sequence (P33261 whole entry, looked up): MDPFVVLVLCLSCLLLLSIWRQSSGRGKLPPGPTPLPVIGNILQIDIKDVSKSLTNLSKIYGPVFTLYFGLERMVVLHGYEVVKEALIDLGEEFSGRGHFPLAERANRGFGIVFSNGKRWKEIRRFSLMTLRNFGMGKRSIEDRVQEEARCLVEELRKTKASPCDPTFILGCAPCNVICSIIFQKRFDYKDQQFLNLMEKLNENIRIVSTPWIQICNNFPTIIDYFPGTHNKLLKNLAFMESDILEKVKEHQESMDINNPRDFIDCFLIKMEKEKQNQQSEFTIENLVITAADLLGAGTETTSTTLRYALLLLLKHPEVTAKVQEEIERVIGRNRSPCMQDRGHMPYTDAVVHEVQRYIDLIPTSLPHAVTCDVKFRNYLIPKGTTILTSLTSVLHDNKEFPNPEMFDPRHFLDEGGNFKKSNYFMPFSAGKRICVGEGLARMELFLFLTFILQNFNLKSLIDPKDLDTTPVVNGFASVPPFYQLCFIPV
# Outline: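 5nM enzyme + 10uM Luciferin-H EGE (=KM), 50mM KPO4; cpd pin-transferred, 10 min 37C; NADPH regen, 60 min 37C; stopped w/ luciferin detection reagent, 20 min; luminescence. Normalized to 57uM ketoconazole (AC100).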
# [13] = target: Tyrosyl-DNA phosphodiesterase 1 (Homo sapiens) (UniProt Q9NUW8); assay: Confirmation Assay for Inhibitors of Tyrosyl-DNA Phosphodiesterase (TDP1) (AID 489007); conditions: recombinant human TDP1 enzymatic activity, dose-response; further: potency means the concentration at half of the fitted maximal effect; nearly all actives have a fitted effect of over 40% in size
# UniProt Q9NUW8, sequence (Q9NUW8 whole entry, looked up): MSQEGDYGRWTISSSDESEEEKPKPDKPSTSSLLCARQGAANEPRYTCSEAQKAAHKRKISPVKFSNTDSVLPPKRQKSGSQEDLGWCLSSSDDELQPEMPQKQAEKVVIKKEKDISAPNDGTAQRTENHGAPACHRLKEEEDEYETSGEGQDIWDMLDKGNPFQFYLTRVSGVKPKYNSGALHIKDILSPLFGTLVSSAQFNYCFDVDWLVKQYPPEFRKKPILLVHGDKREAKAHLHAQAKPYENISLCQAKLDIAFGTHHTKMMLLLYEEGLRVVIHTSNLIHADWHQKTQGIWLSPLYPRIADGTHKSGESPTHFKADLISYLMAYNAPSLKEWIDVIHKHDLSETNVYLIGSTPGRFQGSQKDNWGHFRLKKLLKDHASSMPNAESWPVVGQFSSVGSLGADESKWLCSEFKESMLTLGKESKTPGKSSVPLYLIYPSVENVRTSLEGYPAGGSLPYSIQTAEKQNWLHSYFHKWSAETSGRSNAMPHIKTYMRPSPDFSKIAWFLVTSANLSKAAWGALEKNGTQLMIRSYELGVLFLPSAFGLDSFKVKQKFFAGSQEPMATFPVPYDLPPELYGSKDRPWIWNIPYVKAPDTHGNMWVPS
# Outline: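 Tdp1 1 nM + cpd, 15 min RT; add biotin/phosphotyrosine-FITC oligo 15 nM, 5 min RT; add AS donor/acceptor beads 10 ug/ml, 10 min RT; read AlphaScreen. No-enzyme wells = max signal.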
# Tags describe the fitted curve by direction and shape or compound fluorescence and quenching.
smiles,measurement,setting,value
COc1cccc(Nc2ncc3ncc(=O)n(C4CC4)c3n2)c1,"activity change, negative = inhibition",[1],inconclusive: -41% [inhibitor]
same,Potency,[2],"inconclusive [inhibitor, partial curve]"
same,Potency,[3],inactive
same,Potency,[4],"inconclusive [inhibitor, single point]"
COc1ccc(-c2nc3cnc(N4CCNCC4)nc3n(C3CC3)c2=O)cc1,"activity change, negative = inhibition",[1],inconclusive: 65.3% [activator]
same,"activity change, negative = inhibition",[5],inconclusive: 73.6% [activator]
same,Potency,[6],inactive
same,Potency,[7],active: 7.94 µM
same,Potency,[8],active: 3.16 µM
same,Potency,[4],"inconclusive [inhibitor, partial curve, poor fit]"
COc1cccc(-c2ccc3ncnc(NCCc4c[nH]c5ccc(OC)cc45)c3c2)c1,"activity change, negative = inhibition",[1],inconclusive: -63.3% [inhibitor]
same,"activity, negative = inhibition",[9],inconclusive: -33.3% [inhibitor]
same,Potency,[10],"inconclusive [inhibitor, single point]"
same,Potency,[8],"inconclusive [inhibitor, partial curve]"
same,Potency,[11],inactive
same,Potency,[4],"inconclusive [inhibitor, single point]"
COCCn1c(=O)c(-c2ccccc2)nc2cnc(Oc3cccc(Cl)c3)nc21,"activity change, negative = inhibition",[1],inconclusive: -35.1% [inhibitor]
same,Potency,[6],inactive
same,activation,[8],inconclusive: -26.9%
same,Potency,[4],"inconclusive [inhibitor, single point]"
COc1ccc2[nH]cc(CCNc3cc(-c4ccc5c(c4)OCO5)ncn3)c2c1,"activity change, negative = inhibition",[1],inconclusive: -37.3% [inhibitor]
same,"activity, negative = inhibition",[9],inconclusive: -33.1% [inhibitor]
same,Potency,[10],"inconclusive [inhibitor, partial curve]"
same,Potency,[6],"inconclusive [activator, single point]"
same,Potency,[4],inactive
O=C(c1cnccn1)N1CCC2(CCCN(C(c3ccccc3)c3ccccc3)C2)CC1,"activity change, negative = inhibition",[1],inconclusive: 72.6% [activator]
same,"activity change, negative = inhibition",[5],inconclusive: 22.5% [activator]
same,Potency,[6],"inconclusive [activator, partial curve]"
same,Potency,[8],"inconclusive [inhibitor, single point]"
same,Potency,[4],inactive
COc1cccc(Cn2c(=O)c(C)nc3cnc(OCc4ccccc4)nc32)c1,"activity change, negative = inhibition",[1],inconclusive: -33.4% [inhibitor]
same,Potency,[6],"inconclusive [rising, partial curve]"
same,Potency,[4],inactive
COc1cccc(Cn2c(=O)c(-c3cn(C)c4ccccc34)nc3cnc(OC)nc32)c1,"activity change, negative = inhibition",[1],inconclusive: 37.7% [activator]
same,"activity, negative = inhibition",[9],inconclusive: 58.3% [activator]
same,Potency,[4],inactive
COc1ccc(Oc2ncc3nc(CCc4ccccc4)c(=O)n(C4CC4)c3n2)cc1,"activity change, negative = inhibition",[1],inconclusive: -30.6% [inhibitor]
same,Potency,[6],"inconclusive [activator, partial curve]"
same,Potency,[2],"inconclusive [inhibitor, full curve]"
same,Potency,[12],active: 1.58 µM
same,activation,[8],inconclusive: 1.3%
same,Potency,[4],"inconclusive [inhibitor, single point]"
FC(F)(F)c1ccccc1-c1ccc2ncnc(NC3CCNCC3)c2c1,"activity change, negative = inhibition",[1],inconclusive: 88.3% [activator]
same,"activity change, negative = inhibition",[7],inactive: 12.9% [at 2.29 µM]
same,activation,[8],inactive: -6.93%
same,Potency,[11],inactive
same,Potency,[4],"inconclusive [inhibitor, single point]"
Cc1cccc(CNc2ncnc3ccc(-c4cccc(NS(C)(=O)=O)c4)cc23)c1,"activity change, negative = inhibition",[1],inconclusive: -88.1% [inhibitor]
same,Potency,[11],"inconclusive [inhibitor, partial curve, poor fit]"
same,Potency,[4],"inconclusive [inhibitor, single point]"
O=C(c1cc(C(F)(F)F)cc(C(F)(F)F)c1)N1CCC2(CCCN(c3ccncc3)C2)CC1,"activity change, negative = inhibition",[1],inconclusive: 43% [activator]
same,"activity change, negative = inhibition",[5],inconclusive: -59.1% [inhibitor]
same,Potency,[8],"inconclusive [activator, partial curve]"
same,Potency,[4],"inconclusive [inhibitor, single point]"
FC(F)(F)c1ccccc1-c1cncnc1Nc1ccccc1,"activity change, negative = inhibition",[1],inactive: -9.67%
same,Potency,[6],"inconclusive [activator, single point]"
same,Potency,[12],active: 7.94 µM
same,Potency,[13],"inconclusive [inhibitor, full curve]"
same,Potency,[4],inactive
